Results as given in patent US20180148492A1 (CHILDREN S HOSPITAL MEDICAL CENTER, published 2018).

Target: T1, BSA (UniProt P02769)
T1 construct: Control coating of the wells
Test: solid phase adhesion assay, ELISA read-out (A450 nm-A900 nm)
Experimental: Recombinant human integrin α4β7 (R&D Systems) was diluted to the indicated concentration in buffer (150 mM NaCl, 20 mM HEPES); 100 microliters per well was added to Costar half-well ELISA plates (Corning Inc.) and incubated overnight at 4° C. The following day, wells were washed and blocked with 5% BSA in buffer (150 mM NaCl, 20 mM HEPES) overnight at 4° C. The following day, the wells were washed, and IgG1× or CDH26-hIgG1-Fc diluted in assay buffer (150 mM NaCl, 20 mM HEPES, 1 mM CaCl₂, 1 mM MgCl₂, 1 mM MnCl₂) containing 5% BSA was added to wells for 60 min at 37° C. Wells were washed 3×, and detection antibody (biotinylated anti-human IgG1 (Vector Laboratories, Inc.); 0.5 micrograms per milliliter in assay buffer with 5% BSA) was added for 2 h at room temperature. Wells were washed 3× with assay buffer with 5% BSA and streptavidin-HRP was added (1:200 in assay buffer with 5% BSA; R & D Systems). Wells were washed 3× with assay buffer with 5% BSA, and a 1:1 dilution of TMB substrate (BD Biosciences) was added. The reaction was stopped by the addition of 2N H2SO4. Absorbance at 450 nm and 900 nm was measured using a plate reader (BioTek).

T1 sequence (P02769 25-607 limits assumed): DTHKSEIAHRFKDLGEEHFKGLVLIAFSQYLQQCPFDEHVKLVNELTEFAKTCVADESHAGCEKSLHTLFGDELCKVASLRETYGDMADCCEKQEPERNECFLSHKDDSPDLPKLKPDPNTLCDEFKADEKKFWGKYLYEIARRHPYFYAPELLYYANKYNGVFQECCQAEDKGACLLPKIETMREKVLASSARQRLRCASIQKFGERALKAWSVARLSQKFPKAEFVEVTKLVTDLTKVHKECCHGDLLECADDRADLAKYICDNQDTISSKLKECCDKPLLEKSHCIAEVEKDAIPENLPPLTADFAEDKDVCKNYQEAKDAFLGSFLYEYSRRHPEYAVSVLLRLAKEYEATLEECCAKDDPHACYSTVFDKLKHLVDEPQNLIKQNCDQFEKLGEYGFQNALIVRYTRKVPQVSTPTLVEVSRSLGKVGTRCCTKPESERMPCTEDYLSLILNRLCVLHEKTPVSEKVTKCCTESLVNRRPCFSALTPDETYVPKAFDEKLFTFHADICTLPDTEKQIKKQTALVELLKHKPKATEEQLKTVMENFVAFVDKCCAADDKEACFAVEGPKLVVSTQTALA

binding result: no binding
B1: CDH26-hIgG1-Fc fusion protein (Fc fusion)
chain: DSVQQETDDLTKQTKEKIYQPLRRSKRRWVITTLELEEEDPGPFPKLIGELFNNMSYNMSLMYLISGPGVDEYPEIGLFSLEDHENGRIYVHRPVDREMTPSFTVYFDVVERSTGKIVDTSLIFNIRISDVNDHAPQFPEKEFNITVQENQSAGQPIFQMLAVDLDEENTPNSQVLYFLISQTPLLKESGFRVDRLSGEIRLSGCLDYETAPQFTLLIRARDCGEPSLSSTTTVHVDVQEGNNHRPAFTQENYKVQIPEGRASQGVLRLLVQDRDSPFTSAWRAKFNILHGNEEGHFDISTDPETNEGILNVIKPLDYETRPAQSLIIVVENEERLVFCERGKLQPPRKAAASATVSVQVTDANDPPAFHPQSFIVNKEEGARPGTLLGTFNAMDPDSQIRYELVHDPANWVSVDKNSGVVITVEPIDRESPHVNNSFYVIIIHAVDDGFPPQTATGTLMLFLSDINDNVPTLRPRSRYMEVCESAVHEPLHIEAEDPDLEPFSDPFTFELDNTWGNAEDTWKLGRNWGQSVELLTLRSLPRGNYLVPLFIGDKQGLSQKQTVHVRICPCASGLTCVELAD[omitted - human IgG1 Fc]
notes: No propeptide cleavage is stated; also called CDH26-Fc; recombinant CDH26-hIgG1-Fc
